As usually defined, the pKi is the negative decadic logarithm of the Ki, by convention in mol/L. A lower pKi goes with a high Ki.

Each structure is given as a SMILES string. pKi: −log10 of the molar value.

The text below walks through data of patent US20210047304A1, “Bromodomain Inhibitors” (AbbVie Inc., priority 2016, published 2021).

This assay deals with BRD4 (BDII_E352-M457) (Homo sapiens, UniProt O60885). The assay is described as follows: TR-FRET bromodomain binding assay, BRD4 BDII. (In general: Time-resolved FRET reads energy transfer from a long-lived donor to a nearby acceptor.)

In the case of `Cc1cc(F)cc(C)c1Oc1ccc(C(C)(C)O)cc1-c1cn(C)c(=O)cc1O[C@H]1CC[C@H](NC(=O)C2(C)CC(=O)C2)CC1` [Example 87, N-[trans-4-({5-[2-(4-fluoro-2,6-dimethylphenoxy)-5-(2-hydroxypropan-2-yl)phenyl]-1-methyl-2-oxo-1,2-dihydropyridin-4-yl}oxy)cyclohexyl]-1-methyl-3-oxocyclobutane-1-carboxamide], the pKi is 8.49.
